For three compounds, cell count results are on record in the supplement of paper PMC4604168 (melanoma cell lines).

Common to all, as to test: cell count relative to DMSO control; melanoma cells; higher = more viable cells
Settings in all cases: library dose: low library concentration; 72 h

In assay [1] the test system is MZ2-MEL.
For assay [2], the system named is MeWo.
Assay [3] relates to RPMI7951.
For assay [4], the system named is RVH-421.
Assay [5] deals with SkMel28.
Assay [6] concerns SkMel2.
For assay [7], the system named is SkMel30.
The test system of assay [8] is UACC62.

This is one part of the list. Many values rest on one well or one pass, so single values are uncertain.
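Further: cell number obtained by counting DAPI-stained nuclei in high-throughput microscope images with image analysis software, screen run in 1,536-well plates.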

Regarding `N#CC[C@H](C1CCCC1)n1cc(-c2ncnc3[nH]ccc23)cn1` [ruxolitinib] + CC[C@]1(O)C[C@H]2CN(CCc3c([nH]c4ccccc34)[C@@](C(=O)OC)(c3cc4c(cc3OC)N(C=O)[C@H]3[C@@](O)(C(=O)OC)[C@H](OC(C)=O)[C@]5(CC)C=CCN6CC[C@]43[C@@H]65)C2)C1 [vincristine] (first compound 1 µM, partner dose 0.0001 µM), the cell count in assay [1] was determined as 105%; in assay [2], 102%; in assay [3], 71%; in assay [4], 82%; in assay [5], 111%; in assay [6], 99.6%. Further, the cell count came out at 108% in assay [7] and 90.3% in assay [8].
Consider `Cc1cc(Nc2cc(N3CCN(C)CC3)nc(Sc3ccc(NC(=O)C4CC4)cc3)n2)n[nH]1` [Tozasertib] + COc1cc([C@@H]2c3cc4c(cc3[C@@H](O[C@@H]3O[C@@H]5CO[C@@H](C)O[C@H]5[C@H](O)[C@H]3O)[C@H]3COC(=O)[C@H]23)OCO4)cc(OC)c1O [etoposide] (first compound 0.006 µM, partner dose 0.02 µM), for which the cell count in assay [1] worked out at 94.2%; in assay [2], 84.1%; in assay [3] it was 94.4%; in assay [4], 87.9%; in assay [5], 89.2%; in assay [6], 89.9%. The cell count was 97.6% in assay [7] and 84.5% in assay [8].
On to `N#CC[C@H](C1CCCC1)n1cc(-c2ncnc3[nH]ccc23)cn1` [ruxolitinib] + Cc1cn(-c2cc(NC(=O)c3ccc(C)c(Nc4nccc(-c5cccnc5)n4)c3)cc(C(F)(F)F)c2)cn1 [nilotinib] (first compound 1 µM, partner dose 0.2 µM), for which the cell count came to 92.5% in assay [1]; 88.9% in assay [2]; 87.3% in assay [3]; 102% in assay [4]; 123% in assay [5]; 96.3% in assay [6]. Also, the cell count is 97.2% in assay [7] and 107% in assay [8].
